Data taken from PMC4336329 (PLoS ONE, 2015).
In all, about 310,000 compounds went through this assay and about 2,200 (0.71%) showed an effect of 50% or more. The effect is printed as a negative number. Some of the results follow.

target: human ether-à-go-go-related gene (hERG) potassium channel (human, UniProt Q12809); test: primary screen, population patch clamp on CHO cells stably expressing hERG
Sequence (Q12809 whole entry, looked up): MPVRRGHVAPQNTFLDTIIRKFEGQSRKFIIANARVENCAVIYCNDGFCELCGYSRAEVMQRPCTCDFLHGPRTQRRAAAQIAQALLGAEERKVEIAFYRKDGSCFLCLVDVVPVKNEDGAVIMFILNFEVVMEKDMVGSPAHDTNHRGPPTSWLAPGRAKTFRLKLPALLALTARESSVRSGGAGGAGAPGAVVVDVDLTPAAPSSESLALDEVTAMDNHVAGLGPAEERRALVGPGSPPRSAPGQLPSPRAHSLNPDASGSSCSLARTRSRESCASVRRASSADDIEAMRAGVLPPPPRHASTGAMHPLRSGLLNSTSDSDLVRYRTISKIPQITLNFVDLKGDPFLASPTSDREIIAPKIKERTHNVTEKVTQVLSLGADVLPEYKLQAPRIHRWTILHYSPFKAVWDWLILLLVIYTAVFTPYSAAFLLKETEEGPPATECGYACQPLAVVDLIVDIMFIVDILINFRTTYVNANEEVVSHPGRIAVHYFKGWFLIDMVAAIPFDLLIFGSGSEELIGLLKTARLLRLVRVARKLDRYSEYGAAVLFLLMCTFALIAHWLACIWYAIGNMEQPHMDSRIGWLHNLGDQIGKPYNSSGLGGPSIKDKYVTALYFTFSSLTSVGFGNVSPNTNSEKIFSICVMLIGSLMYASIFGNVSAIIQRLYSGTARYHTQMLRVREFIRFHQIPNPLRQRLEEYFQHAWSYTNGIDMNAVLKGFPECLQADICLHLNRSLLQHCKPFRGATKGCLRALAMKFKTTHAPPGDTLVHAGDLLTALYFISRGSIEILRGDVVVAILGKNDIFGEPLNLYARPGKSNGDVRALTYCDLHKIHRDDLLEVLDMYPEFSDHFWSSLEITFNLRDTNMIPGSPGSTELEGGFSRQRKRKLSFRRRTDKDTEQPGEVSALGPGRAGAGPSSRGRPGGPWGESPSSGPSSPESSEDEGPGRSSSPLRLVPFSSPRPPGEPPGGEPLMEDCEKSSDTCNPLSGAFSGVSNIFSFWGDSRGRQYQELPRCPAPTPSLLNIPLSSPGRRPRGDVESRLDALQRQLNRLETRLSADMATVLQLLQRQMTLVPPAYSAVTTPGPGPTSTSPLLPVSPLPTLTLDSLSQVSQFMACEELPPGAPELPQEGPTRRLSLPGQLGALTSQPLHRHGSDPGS

Row | SMILES | hERG current change (%, negative = inhibition) at 1uM
1 | CS(=O)(=O)c1ccc(C(=O)Nc2ccc(N3CCOCC3)cc2)c(Cl)c1 | 9.5%
2 | COc1ccc(S(=O)(=O)N2CCC(C(=O)Nc3cccc(Cl)c3)CC2)cc1OC | 5.95%
3 | Cn1cnc2c1c(=O)n(Cc1cccc(Cl)c1)c(=O)n2C | 11%
4 | O=[N+]([O-])c1cccc(-c2cc3cccc[n+]3cc2-c2cccc([N+](=O)[O-])c2)c1.[Cl-] | -3.23%
5 | COc1ccc(Cl)cc1C(=O)Nc1ccccc1N1CCN(C(=O)C(C)C)CC1 | -19.6%
6 | Cn1ccnc1Sc1ccc(/C=N/NC(=O)c2ccccc2[N+](=O)[O-])cc1[N+](=O)[O-] | -6.08%
7 | CSCCC(NC(=O)c1ccccc1Cl)C(=O)N1CCN(C(c2ccccc2)c2ccccc2)CC1 (centres unmarked) | 8.16%
8 | COc1ccc(CCNC(=O)CSc2ccc3nnc(CCNC(=O)c4ccccc4)n3n2)cc1OC | 10.7%
9 | CCOc1ccc(CN2CCN(Cc3cnc(N4CCOCC4)s3)CC2CCO)cc1 (centres unmarked) | -19.2%
10 | COc1cccc(-c2nc(N3CCCCC3C)c3ccccc3n2)c1O (centres unmarked) | 16.7%
11 | COc1ccccc1OCCCCCNCCO | 6.02%
12 | COc1ccccc1NS(=O)(=O)c1ccc(C(N)=O)cc1 | 14.9%
13 | C=C(C)c1cccc(C(C)(C)NC(=O)N2CCN(C/C=C/c3ccccc3)CC2)c1 | -4.33%
14 | Cc1cc(Nc2ccc(F)cc2Cl)n2ncnc2n1 | 5.93%
15 | CCC1CCCCN1C(=O)CSc1nc2c(cnn2-c2ccc(C)cc2)c(=O)[nH]1 (centres unmarked) | 19.8%
16 | CCCOP(=O)(OCCC)C1(Nc2ccc(C)cc2)CCCCC1 | 7.69%
17 | COc1ccc(S(=O)(=O)N(CC(=O)NN=C2CCN(C)CC2)c2ccc(C)cc2)cc1OC | 12.5%
18 | Cc1ccc(OCC(O)Cn2c(=N)n(CCN3CCCCC3)c3ccccc32)cc1.Cl (centres unmarked) | -30.1%
19 | COc1ccc(N2CC(C(=O)Nc3nnc(SCC(=O)N4CCOCC4)s3)CC2=O)cc1 (centres unmarked) | 9.08%
20 | O=C1CC(NNc2ccccc2)C(=O)N1c1cccc(Cl)c1 (centres unmarked) | 24.5%
21 | O=C(COc1ccc(S(=O)(=O)N2CCCC2)cc1)NCC1CCCO1 (centres unmarked) | 17.9%
22 | COn1c(SC(C)C)nc2ccccc2c1=O | -2.81%
23 | O=C(NC1CC(=O)N(c2cccc(F)c2)C1)N1CCN(C(=O)c2ccco2)CC1 (centres unmarked) | 2.41%
